± gives the standard deviation of the averaged measurements. Whole data set: some 33,000 sequences, median “E-score (dimensionless, -0.5 to 0.5)” near -0.049, cut for the highest 2% near 0.37. The list shows a part of the results.
Tested on: T1, PmTbr T-box DNA-binding domain (GST fusion)
T1 sequence: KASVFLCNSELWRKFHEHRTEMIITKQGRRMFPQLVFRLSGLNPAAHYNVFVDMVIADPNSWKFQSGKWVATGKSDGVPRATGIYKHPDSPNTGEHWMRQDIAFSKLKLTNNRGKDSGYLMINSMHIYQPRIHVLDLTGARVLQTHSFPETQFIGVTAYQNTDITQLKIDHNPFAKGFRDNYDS
Test: PBM E-score of 8-mer (E-score (dimensionless, -0.5 to 0.5)); Tbr is Tbrain of the sea star Patiria miniata (Pm) or the sea urchin Strongylocentrotus purpuratus (Sp); higher = stronger binding preference; most listed sequences are background and not binding sites
Settings: the construct has about 5 more residues each side
Summary of the method: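 Using the Universal PBM Analysis Suite, every ungapped 8-mer received an enrichment E-score averaged over duplicate arrays. Probe intensities came from double-stranded Universal Agilent oligonucleotide arrays incubated with 200 nM GST-fused Tbr T-box DNA-binding domain in PBS (pH 7.5). That protein was expressed in BL21 E. coli at 20 °C and purified by glutathione affinity chromatography.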

Sequence	PBM E-score of 8-mer
CCCCGGGG	-0.304 ± 0.068
CATTAACG	0.163 ± 0.032
AAGAATCA	-0.0502 ± 0.015
ACCTGGGC	0.044 ± 0.0094
GGTTGAAC	-0.16 ± 0.045
CATTCAGA	0.01316 ± 0.00011
ATCCGCTA	0.0902 ± 0.015
GCGTGTCC	0.16 ± 0.057
ACACATGT	0.316 ± 0.011
CCTGATTC	-0.136 ± 0.021
ATTAAGAC	0.00011 ± 0.12
ATATCACG	0.184 ± 0.013
CGCATAAA	-0.134 ± 0.049
GCACTCAA	0.0191 ± 0.0037
ACCCCGGA	0.052 ± 0.11
TGTACACA	-0.0482 ± 0.031
AGCACCGA	-0.00405 ± 0.11
ATACTGGA	-0.0727 ± 0.11
AAAAGGCA	0.0417 ± 0.053
AAAGTGCT	0.342 ± 0.025
CAACCACA	-0.105 ± 0.015
AAAGGATT	-0.229 ± 0.0066

Sequence	PBM E-score of 8-mer
CTGACAAA	0.12 ± 0.038
GGTGTTGA	0.4746 ± 0.0036
AAGGCAAT	-0.188 ± 0.048
ATAGCCTG	-0.152 ± 0.013
AAGCCCAG	-0.229 ± 0.013
ACATAGAC	-0.176 ± 0.02
GACTGCAA	0.0012 ± 0.1
ACACATCC	0.3871 ± 0.0015
CGCCCCGC	0.0841 ± 0.087
AACGTACT	-0.213 ± 0.026
TCCAATAA	-0.0524 ± 0.043
CTAGAGTC	-0.154 ± 0.088
CGAGTGCG	0.225 ± 0.033
AGAGACTC	-0.292 ± 0.018
CTAAAGCA	-0.0165 ± 0.061
AAGGCATC	-0.111 ± 0.022
GTGTAAAC	0.2899 ± 0.00037
ATGTATCG	0.0604 ± 0.019
ATCAGGTG	0.404 ± 0.0092
ACCGGGGA	-0.3169 ± 0.002
ACGTTTGG	-0.0442 ± 0.0078
ACACTGCA	0.213 ± 0.042

Sequence	PBM E-score of 8-mer
TGAGATCA	0.177 ± 0.01
AGCCAACC	-0.132 ± 0.061
AAGACGAC	0.0321 ± 0.0016
CTTCTTCC	-0.0666 ± 0.097
AGAAAGGA	-0.138 ± 0.076
ATTTAACA	0.248 ± 0.0093
ACCAGAAC	-0.135 ± 0.037
AATCAAAT	-0.264 ± 0.038
ATACTCAT	-0.16 ± 0.018
CGCGTCAG	0.303 ± 0.026
GAGAGGAA	-0.0473 ± 0.031
CGGAAAAA	-0.0583 ± 0.12
AACTGTGG	0.00267 ± 0.0079
CCAATTCC	0.0614 ± 0.019
ATTATCGC	0.3071 ± 0.0026
AGGCAGGC	-0.112 ± 0.0018
ATGGACAA	0.133 ± 0.022
AGGGTATG	-0.218 ± 0.032
CATTTTGG	-0.253 ± 0.0098
GATACACA	-0.0097 ± 0.0035
CTAAATCA	-0.0232 ± 0.021
AGAAATAG	-0.103 ± 0.051

Sequence	PBM E-score of 8-mer
GTACCCGA	-0.181 ± 0.1
CTCTCCGA	-0.0521 ± 0.045
ACACTGCT	0.132 ± 0.015
ACTGAGAG	-0.222 ± 0.014
AGCGATTG	-0.0321 ± 0.0042
TGCCAGAA	-0.00762 ± 0.043
GAGAAGAA	-0.0456 ± 0.024
TACTTGCA	0.0126 ± 0.026
ACGGTACG	-0.235 ± 0.024
ACTTCTAA	3e-05 ± 0.12
GCCCGTCC	-0.19 ± 0.012
GTGGCATA	-0.00798 ± 0.078
CCTACATA	-0.165 ± 0.054
GGGTCTGA	-0.157 ± 0.028
AGTCGAAA	-0.142 ± 0.01
AGGTTCTG	-0.132 ± 0.017
TAGTTTCA	-0.162 ± 0.037
GTAAATAA	-0.0684 ± 0.071
GACAGTCA	0.117 ± 0.0081
AGTAGCTC	-0.307 ± 0.052

Reference: the supplement of paper PMC4166925
